Data reported in the supplement of paper PMC11246515.

Assay: total protein half-life in vivo (active degradation + dilution); higher = more stable protein

MKDIDTLISNNALWSKMLVEEDPGFFEKLAQAQKPRFLWIGCSDSRVPAERLTGLEPGELFVHRNVANLVIHTDLNCLSVVQYAVDVLEVEHIIICGHYGCGGVQAAVENPELGLINNWLLHIRDIWFKHSSLLGEMPQERRLDTLCELNVMEQVYNLGHSTIMQSAWKRGQKVTIHGWAYGIHDGLLRDLDVTATNRETLEQRYRHGISNLKLKHANHK
growth: N-lim chemostat, doubling time 6 h
Conditions | total protein half-life in vivo [h]
E. coli NCM3722 delta-clpP | 6.43 ± 0.31
E. coli NCM3722 delta-clpP delta-lon delta-hslV | 5.61 ± 0.29
E. coli NCM3722 delta-hslV | 6.84 ± 1.5
E. coli NCM3722 delta-lon | 5.9 ± 0.83
E. coli NCM3722 delta-smpB | 5.47 ± 0.66

total protein half-life in vivo [h]
Conditions | wild type E. coli NCM3722, growth: C-lim chemostat | wild type E. coli NCM3722, growth: N-lim chemostat | wild type E. coli NCM3722, growth: P-lim chemostat
doubling time 3 h | 3 ± 0.43 | – | –
doubling time 6 h | 5.98 ± 0.1 | 5.417 ± 0.039 | 6.16 ± 0.15
doubling time 12 h | 8.84 ± 0.56 | 12.6 ± 0.56 | 13.3 ± 0.41

± gives the standard deviation of the averaged measurements.
